{"source": "PubChem BioAssay AID651687", "about": "(Broad Institute, 2012)", "note": "In all, about 350,000 compounds went through this assay and about 600 (0.17%) were called active. Inconclusive results, whose numbers are uncertain, are shown with a selection of clear calls.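 The calls were made as follows: active = every replicate shows inhibition of at least 40%; inconclusive = mean inhibition at least 40% but some replicate below; inactive = the rest.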 Starred links: 1 amine or outer side, 2 acyl side, 3 side chain; linkers in the order of their positions; H or OH if unused. Non-standard residues stand in square brackets, D forms with d. Residues, ends and D or L forms follow the SMILES beside them. X2 = CC[C@H](C)[C@H](OC(=O)[C@@H](C)[C@@H](CC)N[*:1])C(=O)[*:2]; X1 = CC(N[*:1])C(=O)C(C)(C)C(=O)[*:2]; NMeF = CN[C@@H](Cc1ccccc1)C(=O)O; NMeL = CN[C@@H](CC(C)C)C(=O)O; NMeV = CN[C@H](C(=O)O)C(C)C; NMeA = CN[C@@H](C)C(=O)O"}
{"assay": "inhibitors of PGC1a acetylation signal, primary screen, cell-based, U2OS, AlphaScreen, inhibitor mode (AID 651687);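 also: 0% = neutral control wells and 100% = positive control wells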", "settings": "AlphaScreen anti-acetyl-lysine, at 15.6 µM, hits give high values, with virally co-expressed GCN5 acetyltransferase"}
{"molecule": "COc1ccc(C2NC(=S)NC3=C2CCCC3=C2SCCS2)cc1", "note": "(configuration not stated)", "inhibition": "active: 45.3%"}
{"molecule": "CC(/C=N/NC(=O)c1cc(-c2ccc(Cl)cc2)nc2ccccc12)=C\\c1ccco1", "inhibition": "inconclusive: 52.7%"}
{"molecule": "C[C@@H]1CN([C@H](C)CO)C(=O)CCCn2cc(nn2)CO[C@@H]1CN(C)C(=O)NC1CCCC1", "inhibition": "inconclusive: 45.7%"}
{"molecule": "CCC(=O)N1C[C@H](C)[C@H](OC)CN(C)C(=O)c2cc(NC(=O)c3cnccn3)ccc2OC[C@@H]1C", "inhibition": "inconclusive: 41.2%"}
{"molecule": "C[C@@H]1CCCCO[C@H](CN(C)C(=O)c2ccccc2)[C@@H](C)CN([C@H](C)CO)C(=O)c2cc(NC(=O)Nc3ccccc3)ccc2O1", "inhibition": "inactive: -9.62%"}
{"molecule": "CN(C)c1ncnc2c1ncn2C1OC(CO)C(O)C1O", "note": "(configuration not stated)", "inhibition": "inconclusive: 49.5%"}
{"molecule": "Cc1ccc(-c2cc(C(=O)NCC3CCCO3)c3ccccc3n2)cc1C", "note": "(configuration not stated)", "inhibition": "inconclusive: 45.8%"}
{"molecule": "Cc1cccc(C(=O)Nc2ccc3c(c2)ncn3C)c1", "inhibition": "inactive: -1.43%"}
{"molecule": "Cc1nnc(SCC(=O)N2CCC(c3noc4ccc(F)cc34)CC2)s1", "inhibition": "active: 57.5%"}
{"molecule": "CN(C)c1ccc(-n2cccc2/C=N/n2cnnc2)cc1", "inhibition": "inconclusive: 55.5%"}
{"molecule": "CN(C)C(=O)C[C@@H]1C=C[C@@H](NS(=O)(=O)c2ccccc2)[C@@H](CO)O1", "inhibition": "inconclusive: 53.6%"}
{"molecule": "O=C(c1ccc2ccccc2c1)N1CCCC1", "inhibition": "inconclusive: 45.9%"}
{"molecule": "CCCOc1ccccc1-n1sc2c(c1=S)-c1cc(OC)cc3c1N(C(=O)C3=O)C2(C)C", "inhibition": "inconclusive: 49%"}
{"molecule": "Cc1ccc(NC2=C(Cl)C(=O)c3ccccc3C2=O)cc1", "inhibition": "inconclusive: 53.2%"}
{"molecule": "O=C(Nc1ccccc1)Nc1cccc(C(F)(F)F)c1", "inhibition": "inactive: -14.1%"}
{"molecule": "CN1[C@@H]2CC(OC(=O)[C@H](CO)c3ccccc3)C[C@H]1[C@@H]1O[C@@H]12", "note": "(some centres not stated)", "inhibition": "inconclusive: 57.5%"}
{"molecule": "C#CCN(C[C@@H]1[C@@H](OC(=O)Nc2cccs2)[C@@H](OC(=O)Nc2cccs2)Cn2c(=O)ccc(=O)n21)S(=O)(=O)c1ccc(C)cc1", "inhibition": "inconclusive: 43%"}
{"molecule": "CN(C)c1nc(SCCOC(=O)COc2ccc(Cl)cc2Cl)nc(N(C)C)n1", "inhibition": "inconclusive: 51.6%"}
{"molecule": "COc1cc(C=C2C(=O)c3ccccc3C2=O)cc(OC)c1", "inhibition": "inactive: -8.45%"}
{"molecule": "O=C(NCC[C@@H]1CC[C@@H](NC(=O)c2ccc3c(c2)OCO3)[C@@H](CO)O1)Nc1cc(F)ccc1F", "inhibition": "inactive: 7.93%"}
{"molecule": "O=C(CCNNC(=O)c1ccncc1)NCc1ccccc1", "inhibition": "inconclusive: 51.4%"}
{"molecule": "CCOC(=O)c1c(N)c(C#N)c2n1CCCC2", "inhibition": "inactive: -5.92%"}
{"molecule": "Cc1noc(C)c1COc1ccc(C(=O)N2CCN(S(=O)(=O)c3ccccc3)CC2)cc1", "inhibition": "inactive: -12.3%"}
{"molecule": "C#CCN1[C@H](/C=C/C2CC2)[C@H](Cc2ccccc2)OC(=O)[C@@H]1[C@@H]1N[C@@H](C(=O)OC)C(C)(C)S1", "inhibition": "inconclusive: 46.1%"}
{"molecule": "Cc1ccc(S(=O)(=O)Nc2ccc3c(c2)CC(=O)N([C@@H](C)CO)C[C@@H](C)[C@H](CN(C)C(=O)Nc2ccc(C(F)(F)F)cc2)O3)cc1", "inhibition": "inactive: 2.67%"}
{"molecule": "O=C(c1ccc(F)cc1)C(CN1CCOCC1)c1ccccc1", "note": "(configuration not stated)", "inhibition": "active: 60.1%"}
{"molecule": "C[C@H](CO)N1C[C@H](C)[C@H](CN(C)S(C)(=O)=O)Oc2ncc(-c3cc4ccccc4o3)cc2C1=O", "inhibition": "inconclusive: 46.9%"}
{"molecule": "CCc1cc2c(=O)[nH]c(Cc3ccccc3)nc2s1", "inhibition": "inactive: -5.52%"}
{"molecule": "C[C@H]1CN([C@@H](C)CO)C(=O)c2cccc(NC(=O)Nc3ccc(C(F)(F)F)cc3)c2O[C@H]1CN(C)C(=O)Nc1cccc2ccccc12", "inhibition": "inconclusive: 47.1%"}
{"molecule": "CC(C)NC(=O)Nc1ccc2c(c1)C(=O)N([C@@H](C)CO)C[C@@H](C)[C@@H](CN(C)S(=O)(=O)c1ccccc1)OCCCC[C@H](C)O2", "inhibition": "active: 105%"}
{"molecule": "COc1ccc(-c2nc(C#N)c(NCc3ccco3)o2)cc1", "inhibition": "inconclusive: 51.8%"}
{"molecule": "C[C@H](CO)N1C[C@H](C)[C@H](CN(C)C(=O)NC2CCCCC2)Oc2cc(C#Cc3cccc(F)c3)ccc2S1(=O)=O", "inhibition": "inconclusive: 48.3%"}
{"molecule": "CSC1SCC2C(=O)N(C)C(C(C)C)C(=O)OCC(NC(=O)c3cnc4ccccc4n3)C(=O)NC(C)C(=O)N(C)C1C(=O)N(C)C(C(C)C)C(=O)OCC(NC(=O)c1cnc3ccccc3n1)C(=O)NC(C)C(=O)N2C", "note": "(configuration not stated)", "inhibition": "inconclusive: 39.2%"}
{"molecule": "CCOc1ccc(C(C)=O)cc1CSC(=N)N", "inhibition": "inconclusive: 40.3%"}
{"molecule": "COc1cccc(NC(=O)c2ccccc2-c2ccccc2C(=O)O)c1", "inhibition": "active: 81.3%"}
{"molecule": "COc1cccc(-c2nc3ccccc3s2)c1", "inhibition": "inactive: -3.78%"}
{"molecule": "CC[C@H](C)[C@@H]1OC(=O)[C@@H](C)[C@@H](CC)NC(=O)[C@H](C)N(C)C(=O)C(C)(C)C(=O)C(C)NC(=O)[C@H](Cc2ccccc2)N(C)C(=O)[C@H](C(C)C)N(C)C(=O)CNC(=O)[C@H](CC(C)C)N(C)C(=O)CNC1=O", "note": "(some centres not stated) (cyclo(G[NMeL]G[NMeV][NMeF][X1][NMeA][X2]))", "inhibition": "active: 76.1%"}
{"molecule": "CC1CCCN(C(=O)Cc2ccc(F)cc2)C1", "note": "(configuration not stated)", "inhibition": "active: 75.3%"}
{"molecule": "CCc1c(C)nc(SCC(=O)Nc2ccc3c(c2)OCCO3)[nH]c1=O", "inhibition": "inconclusive: 46%"}
{"molecule": "COC(=O)c1cc(CN2C(=O)c3ccccc3C2=O)c(O)c([N+](=O)[O-])c1", "inhibition": "inconclusive: 40.2%"}
{"molecule": "C[C@@H]1CN([C@@H](C)CO)C(=O)c2cc(NS(=O)(=O)c3ccccc3)ccc2O[C@@H](C)CCCCO[C@H]1CN(C)Cc1ccc(C(F)(F)F)cc1", "inhibition": "inactive: -6.47%"}
{"molecule": "CCCCSCCCNC(=O)c1cn(C)c2ccc(S(=O)(=O)N3CCCC3)cc2c1=O", "inhibition": "inconclusive: 9.56%"}
{"molecule": "COc1ccc(C(=O)Nc2cccc(NC(=O)c3ccc(OC)c(OC)c3)n2)cc1OC", "inhibition": "active: 61.2%"}
{"molecule": "CN1C[C@H](C(=O)N[C@]2(C)O[C@@]3(O)[C@@H]4CCCN4C(=O)[C@H](Cc4ccccc4)N3C2=O)CC2c3cccc4[nH]cc(c34)C[C@H]21", "note": "(some centres not stated)", "inhibition": "inconclusive: 42.8%"}
{"molecule": "Cc1noc(C)c1S(=O)(=O)N(C)C[C@H]1Oc2ccc(NS(=O)(=O)c3cccs3)cc2C(=O)N([C@H](C)CO)C[C@H]1C", "inhibition": "inconclusive: 48%"}
{"molecule": "Cc1noc(C)c1NC(=O)N(C)C[C@@H]1Oc2ccc(NS(=O)(=O)c3cn(C)cn3)cc2C(=O)N([C@@H](C)CO)C[C@@H]1C", "inhibition": "inconclusive: 46.4%"}
{"molecule": "COc1cc2cc(C)c3nnc(SCC(=O)Nc4cc(C)on4)n3c2cc1OC", "inhibition": "inconclusive: 40.2%"}
{"molecule": "COc1ccc(NC(=O)N[C@H]2CC[C@@H](CCn3cc(-c4ccccn4)nn3)O[C@@H]2CO)cc1", "inhibition": "inactive: 5.19%"}
{"molecule": "COc1ccc(-c2coc3cc(OC)ccc3c2=O)cc1", "inhibition": "inactive: 7.89%"}
{"molecule": "CCOC(=O)C1(Cc2cccc(F)c2)CCN(Cc2c(C)nn(CC)c2C)CC1", "inhibition": "inconclusive: 48.5%"}
{"molecule": "C[C@H](CO)N1C[C@H](C)[C@H](CN(C)CC2CCCCC2)Oc2ccc(NS(=O)(=O)c3cn(C)cn3)cc2C1=O", "inhibition": "inactive: 2.33%"}
{"molecule": "CCC(=O)NC(c1cccs1)c1ccc2cccnc2c1O", "note": "(configuration not stated)", "inhibition": "active: 47.4%"}
{"molecule": "O=C(N/N=C/c1ccc2c(c1)OCO2)c1cc(-c2ccc(F)cc2)nc2ccccc12", "inhibition": "inconclusive: 49.2%"}
{"molecule": "C[C@@H]1CN([C@H](C)CO)C(=O)c2cccc(NC(=O)c3nc4ccccc4s3)c2O[C@@H]1CN(C)CC1CCCCC1", "inhibition": "inconclusive: 59.1%"}
{"molecule": "Cc1cc(C)n(C/C=C/Cn2nc(C)cc2C)n1", "inhibition": "inconclusive: 43.8%"}
{"molecule": "CCCN(C)C[C@H]1Oc2cc(C#Cc3ccc(OC)cc3)ccc2S(=O)(=O)N([C@@H](C)CO)C[C@H]1C", "inhibition": "inconclusive: 48.6%"}
{"molecule": "COc1ccc(-c2noc(CCC(=O)N3CCN(c4cccc(C)c4C)CC3)n2)cc1", "inhibition": "inconclusive: 43.5%"}
{"molecule": "Cc1ccc(C(=O)c2cnc3ccccc3c2-c2ccccc2)cc1", "inhibition": "inactive: 3.72%"}
{"molecule": "Oc1ccc(-c2nc(-c3ccc(O)c(O)c3)cs2)cc1", "inhibition": "inconclusive: 46.3%"}
{"molecule": "Cc1oc2c(c1C(=O)c1ccccc1)C(=O)C(=O)c1ccccc1-2", "inhibition": "inconclusive: 65.7%"}
{"molecule": "CCC(=O)N1CC2(C1)[C@@H](c1ccccc1)[C@@H](CO)N2CCC(F)(F)F", "inhibition": "inactive: 2.75%"}
{"molecule": "O=C(O)c1cccc(Cn2c(Cl)c(/C=N/NC(=O)c3cc4ccccc4cc3O)sc2=O)c1", "inhibition": "inactive: 5.99%"}
{"molecule": "Cc1noc(C)c1NC(=O)Nc1ccc2c(c1)C(=O)N([C@@H](C)CO)C[C@@H](C)[C@@H](CN(C)CC1CCCCC1)OCCCC[C@H](C)O2", "inhibition": "inconclusive: 55.2%"}
{"molecule": "C[C@@H]1CN([C@H](C)CO)C(=O)c2cc(NC(=O)c3ccncc3)ccc2O[C@@H]1CN(C)C", "inhibition": "inactive: -2.94%"}
{"molecule": "O=C(Nc1cccc2[nH]ncc12)c1ccc(F)cc1", "inhibition": "inconclusive: 41.7%"}
{"molecule": "CSc1n[nH]c(NCc2ccccc2)n1", "inhibition": "inconclusive: 42.4%"}
{"molecule": "C[C@@H]1CN([C@H](C)CO)C(=O)c2cc(NC(=O)CCCCCC(=O)Nc3ccccc3N)ccc2O[C@H]1CN(C)S(=O)(=O)c1ccc(Cl)cc1", "inhibition": "inconclusive: 59.6%"}
{"molecule": "Cc1ccc(-n2nc3ccc(N)cc3n2)cc1", "inhibition": "inconclusive: 52.1%"}
{"molecule": "C[C@@H]1CN([C@H](C)CO)C(=O)c2cc(NS(=O)(=O)c3cccs3)ccc2O[C@@H]1CN(C)Cc1ccc(Oc2ccccc2)cc1", "inhibition": "inactive: -16.6%"}
{"molecule": "CCC(=O)N(C)C[C@@H]1Oc2ncc(C#CCc3ccccc3)cc2C(=O)N([C@H](C)CO)C[C@@H]1C", "inhibition": "active: 101%"}
{"molecule": "O=c1[nH]c(C2CCCN(S(=O)(=O)c3ccccc3Cl)C2)nc2c1nnn2Cc1ccc2c(c1)OCCO2", "note": "(configuration not stated)", "inhibition": "inactive: -19.5%"}
{"molecule": "COC(=O)c1c(-c2ccc(N(C)C)cc2)sc2ccc(OC)cc12", "inhibition": "inactive: 1.24%"}
